{"source": "PubChem BioAssay AID652104", "about": "(National Center for Advancing Translational Sciences (NCATS), 2013)", "note": "Several values for one entry are separate records, joined by “and”; a condition that tells them apart may be missing. Equal entries are not always repeated. Among all 410,000 compounds or so, about 7,200 (1.8%) were called active. This list was built around the results that the source calls inconclusive (neither active nor inactive); the mix of calls is not that of the screen. Calls come from the whole dose curve; as a rule, active = well fitted activation curve with a large enough effect; inconclusive = small, poorly fitted or top-dose-only effect, or another doubt; inactive = no such curve, though single readings can be large or run the other way. Potencies of inconclusive entries are left out as doubtful fits. Potency is the fitted concentration of half-maximal effect; tags give direction and shape of the fitted curve."}
{"assay": "qHTS of TDP-43 Inhibitors; note: nearly all actives have a fitted effect of over 50% in size; for growth rescue (activation): % of control where 0% means no effect", "conditions": "TDP-43 expressing yeast growth rescue, BacTiter-Glo, 24 h; growth rescue (activation): at 46.1 µM (top of the series) unless noted", "how_it_was_run": "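Yeast cells expressing TDP-43 under galactose induction are exposed to compounds for 24 hr at 30 deg C. BacTiter-Glo luminescence measures growth, so protective compounds score as activators.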"}
{"molecule": "Cc1ccc(OC(=O)Nc2ccccc2)cc1", "Potency": "inconclusive [activator, single point]"}
{"molecule": "Cc1cccc(-c2noc(-c3cc4ccccc4oc3=O)n2)c1", "Potency": "inactive"}
{"molecule": "CCC(NC(=O)c1ccccc1NC(=O)C(C)(C)C)C(=O)N1CCCC1", "note": "(configuration not stated)", "Potency": "inconclusive [activator, single point]"}
{"molecule": "CCOc1ccc(OCC)c(S(=O)(=O)N2CCN(c3cccc(C)c3C)CC2)c1", "Potency": "inactive"}
{"molecule": "Cc1ccc(CNC(=O)CSc2c3c(nc4cc(Cl)ccc24)CCCC3)o1", "Potency": "active: 15.8 µM"}
{"molecule": "CN(C)Cc1c(C(=O)N/N=C/CCc2ccccc2)nnn1-c1nonc1N", "Potency": "inactive"}
{"molecule": "O=C(Nc1cccnc1)c1ccc(COc2ccccc2Cl)o1", "Potency": "inconclusive [activator, single point]"}
{"molecule": "Oc1ccccc1C(=S)N1CCN(c2cccc(Cl)c2)CC1", "Potency": "inconclusive [activator, single point]"}
{"molecule": "NC(=O)c1c(NC(=O)c2ccccc2Cl)sc2c1CCC2", "Potency": "inconclusive [activator, partial curve]"}
{"molecule": "O=C(NC(=S)Nc1ccc(S(=O)(=O)N2CCCC2)cc1)C1CCC1", "Potency": "inconclusive [activator, single point]"}
{"molecule": "O=C(Nc1ccccc1Cl)/C(Cl)=C(\\Cl)S(=O)c1ccccc1", "note": "(configuration not stated)", "growth rescue (activation)": "inconclusive: -60.3% [activator]"}
{"molecule": "CCOC(=O)NC(=O)CSc1nc(C)cc(C)c1C#N", "Potency": "active: 15.8 µM"}
{"molecule": "Cc1cccc([C@@H]2[C@@H]3C(=O)N(Cc4ccccc4)C(=O)[C@@H]3[C@]3(Cc4ccc(Cl)cc4)C(=O)N(c4cccc(Cl)c4)C(=O)N23)c1", "Potency": "inconclusive [activator, partial curve, poor fit]"}
{"molecule": "COc1ccc(CCNC(=O)c2cnn3c(C(F)F)cc(C)nc23)cc1OC", "Potency": "inconclusive [activator, full curve, poor fit]"}
{"molecule": "CCc1ccc(/C=C/C(=O)c2cc(Br)ccc(=O)c2O)cc1", "Potency": "inconclusive [activator, single point]"}
{"molecule": "COc1ccc(C(c2nnnn2C(C)(C)C)N2CCN(c3nc4ccccc4s3)CC2)cc1", "note": "(configuration not stated)", "Potency": "inactive"}
{"molecule": "CC1Cc2nc(SCC(=O)NCC3CCCO3)n(-c3ccccc3)c(=O)c2S1", "note": "(configuration not stated)", "Potency": "inactive"}
{"molecule": "COc1cc2c(cc1OC)CN(C(=O)/C=C/c1ccc(F)cc1)CC2", "Potency": "inconclusive [activator, single point]"}
{"molecule": "CCOC(=O)N1CCN(S(=O)(=O)c2ccc(C(=O)Nc3nnc(C)o3)cc2)CC1", "Potency": "inactive"}
{"molecule": "O=C(NCc1ccccc1Cl)c1[nH]c(C(F)(F)F)nc1-c1ccccc1", "Potency": "inconclusive [activator, full curve, poor fit]"}
{"molecule": "CCCCCn1c(SCCOCC)nc2c1c(=O)[nH]c(=O)n2C", "Potency": "inconclusive [activator, partial curve, poor fit]"}
{"molecule": "Cc1cc(C)cc(N2CCn3c2nc2c3c(=O)n(Cc3ccc(Cl)cc3)c(=O)n2C)c1", "Potency": "inactive"}
{"molecule": "CCCS(=O)(=O)c1ncc(Cl)c(C(=O)Nc2scc(-c3ccccc3)c2C(=O)OCC)n1", "Potency": "inconclusive [activator, partial curve]"}
{"molecule": "Cc1nn(C)c(C(=O)N/N=C/c2cccc(Oc3ccccc3)c2)c1Br", "Potency": "active: 4.47 µM"}
{"molecule": "CCOc1cc(C)c(S(=O)(=O)Nc2ccc(F)cc2)cc1C", "Potency": "inconclusive [activator, single point]"}
{"molecule": "CCOc1ccc(N2C(=O)CC(NC3CCN(C(=O)c4ccc(F)cc4)CC3)C2=O)cc1", "note": "(configuration not stated)", "Potency": "inconclusive [activator, partial curve]"}
{"molecule": "CC1(C)CC(=O)C(C=NCCN2CCN(C3CC(=O)N(c4ccc(Cl)c(Cl)c4)C3=O)CC2)=C(O)C1", "note": "(configuration not stated)", "Potency": "inconclusive [activator, single point]"}
{"molecule": "O=C(NCc1ccccc1)C1c2ccccc2Oc2ccccc21", "Potency": "inconclusive [activator, partial curve]"}
{"molecule": "Cc1ccc(OC(C)C(=O)Nc2ccc(Cl)cn2)c([N+](=O)[O-])n1", "note": "(configuration not stated)", "Potency": "inconclusive [activator, partial curve]"}
{"molecule": "CCOc1ccc(-n2c(C)nc3cc(C(=O)NCCC4=CCCCC4)ccc32)cc1", "Potency": "inactive"}
{"molecule": "COc1ccc(CNC(=O)CCC(=O)N2CCSc3ccccc32)cc1", "Potency": "inactive"}
{"molecule": "COc1ccc(-c2nc(Cn3c(SCc4ccc(C)cc4)nc4cccnc43)c(C)o2)cc1OC", "Potency": "inconclusive [activator, single point]"}
{"molecule": "O=C(CCCn1c(=O)c2cccn2c2cccnc21)NCc1ccc(F)cc1", "Potency": "inactive"}
{"molecule": "COc1nc(-c2ccccc2)ccc1-c1noc(C)n1", "Potency": "inconclusive [activator, partial curve]"}
{"molecule": "CN1C(=O)c2cccc(NC(=O)CCc3ccccc3)c2C1=O", "Potency": "inconclusive [activator, full curve, poor fit]"}
{"molecule": "Cc1ccccc1OCC(=O)N/N=C/c1cc2ccccc2nc1Cl", "Potency": "inactive"}
{"molecule": "Cn1nc(-c2ccc(OCC(=O)Nc3ccccc3)cc2)c2ccccc2c1=O", "Potency": "active: 12.6 µM and active: 15.8 µM"}
{"molecule": "Cc1ccc(C(=O)CN2C(=O)C(C)Oc3ccccc32)cc1", "note": "(configuration not stated)", "Potency": "inconclusive [activator, partial curve]"}
{"molecule": "C=CCc1ccc(OCC(O)CN2CCCCC2)c(OC)c1", "note": "(configuration not stated)", "Potency": "inactive"}
{"molecule": "COc1ccc(/C=N/NC(N)=S)cc1OC(=O)c1cccc2ccccc12", "Potency": "inconclusive [activator, partial curve]"}
{"molecule": "O=C(Nc1cccc(-c2csc(Nc3ccc(Cl)cc3)n2)c1)c1ccccc1", "Potency": "inconclusive [activator, single point]"}
{"molecule": "CCOC(=O)/C=C(/C)N1N=C(c2ccc(OC)cc2)CC1c1cccc([N+](=O)[O-])c1", "note": "(configuration not stated)", "Potency": "inconclusive [activator, single point]"}
{"molecule": "O=C(c1ccc2nc(N3CCOCC3)sc2c1)N1CCN(C(=O)c2ccco2)CC1", "Potency": "inactive"}
{"molecule": "Cc1cc(C)n2nc(SCCOc3ccccc3F)nc2n1", "Potency": "inconclusive [activator, partial curve, poor fit]"}
{"molecule": "CCCOC(=O)C1=C(C)NC2=C(C(=O)CC(C)(C)C2)C1c1ccc(N(C)C)cc1", "note": "(configuration not stated)", "Potency": "inactive"}
{"molecule": "CCc1cccc(CC)c1NC(=O)c1cc(S(=O)(=O)N2CCc3ccccc32)cn1C", "Potency": "inactive"}
{"molecule": "COc1ccc(-c2ccc(NS(=O)(=O)c3ccc(F)c(C(F)(F)F)c3)cc2)nn1", "Potency": "inconclusive [activator, partial curve]"}
{"molecule": "CCOC(=O)c1[nH]c(=O)[nH]c1COC(=O)c1cc2ccccc2o1", "Potency": "inconclusive [activator, single point]"}
{"molecule": "O=C(c1ccc(N2CCN(C(=O)c3ccccc3Br)CC2)cc1)c1cccc(F)c1", "Potency": "active: 14.1 µM"}
{"molecule": "Cn1c(=O)n(Cc2ccc(Br)cc2)c2ccccc21", "Potency": "inconclusive [activator, full curve, poor fit]"}
{"molecule": "CCOc1ccccc1-n1c(SCC(=O)N2CCOCC2)nc2ccccc2c1=O", "Potency": "inactive"}
{"molecule": "COc1ccc(NC(=O)CCn2c(=O)c3cccn3c3ccccc32)cc1", "Potency": "inactive"}
{"molecule": "CC1(C)c2ssc(=S)c2-c2ccccc2N1C(=O)CSC1=NCCS1", "Potency": "active: 35.5 µM"}
{"molecule": "O=C1CC(c2nc3ccccc3n2Cc2c(F)cccc2Cl)CN1c1cccc(C(F)(F)F)c1", "note": "(configuration not stated)", "Potency": "active: 25.1 µM"}
{"molecule": "COc1ccccc1NC(=O)N1c2ccc(F)cc2CCC1C", "note": "(configuration not stated)", "Potency": "inconclusive [activator, single point]"}
{"molecule": "Cc1c(OC(C)C(=O)NCc2ccccn2)ccc2c3c(c(=O)oc12)CCCC3", "note": "(configuration not stated)", "Potency": "inconclusive [activator, single point]"}
{"molecule": "C=CCNC(=S)N1CCN(c2cccc(C(F)(F)F)c2)CC1", "Potency": "inconclusive [activator, partial curve]"}
{"molecule": "O=C(O)c1cc(N2C(=O)CCC2=O)ccc1NCc1cccnc1", "Potency": "inactive"}
{"molecule": "Clc1cccc(-c2cc3nc4c(c(N5CCOCC5)n3n2)CCCC4)c1", "Potency": "inconclusive [activator, single point]"}
{"molecule": "Cc1cc2ccccc2n1-c1ccc(C(=O)N2CCCCC2)s1", "Potency": "inconclusive [activator, partial curve]"}
{"molecule": "C#CCN1C=CC(=O)[C@@H](OC(=O)Nc2ccccc2Br)[C@H]1c1ccccc1Br", "Potency": "inconclusive [activator, single point]"}
{"molecule": "COc1ccccc1-c1oc2ccccc2c1C#CCCO", "Potency": "inconclusive [activator, single point]"}
{"molecule": "CC(C)CCNC(=O)c1ccc2c(Cl)c3c(nc2c1)CCC3", "Potency": "inconclusive [activator, partial curve]"}
{"molecule": "CCc1ccc(-c2ccc3nnc(SC)n3n2)cc1", "Potency": "active: 15.8 µM"}
{"molecule": "O=S(=O)(c1cccc2cccnc12)N1CCCCC1", "Potency": "inconclusive [activator, partial curve]"}
{"molecule": "Brc1ccc(-c2cc3c(N4CCN(c5ccccc5)CC4)nccn3n2)cc1", "Potency": "inactive"}
{"molecule": "O=c1c2sc(-c3ccccc3)cc2nc2n1CCCCC2", "Potency": "active: 11.2 µM"}
{"molecule": "C=CCOc1ccc(/C=C/C(=O)OCC(=O)N2CCN(C(C)=O)CC2)cc1", "Potency": "inactive"}
{"molecule": "CC(C)(CC(=O)OCC(=O)Nc1ccc(F)c(Cl)c1)CC1=NS(=O)(=O)c2ccccc2N1", "Potency": "inactive"}
{"molecule": "Cc1onc(-c2ccccc2)c1C(=O)OCC(=O)Nc1ccc(Cl)cc1", "Potency": "inconclusive [activator, partial curve]"}
{"molecule": "O=C(Nc1ccc(Br)cc1Cl)c1ccc(OCC2CCCO2)cc1", "note": "(configuration not stated)", "Potency": "active: 17.8 µM"}
{"molecule": "Cc1ccc(S(=O)(=O)NN2C(=O)/C(=C/c3ccccn3)SC2=S)cc1", "Potency": "inactive"}
